Screen size: about 270,000 compounds; about 5,800 (2.1%) were called active. Inconclusive results, whose numbers are uncertain, are shown with a selection of clear calls. The call rests on the fitted dose curve; in most records, active means well fitted inhibition curve with a large enough effect; inconclusive means small, poorly fitted or top-dose-only effect; inactive means flat fitted curve, though single readings scatter. A potency beside an inconclusive call is a rough fit, not a confirmed value.
These compounds were tested against Microtubule-associated protein tau (Homo sapiens) (UniProt P10636) (assay: qHTS for Inhibitors of Tau Fibril Formation, Thioflavin T Binding). Details: recombinant tau K18 P301L (four-repeat tau fragment), heparin-induced fibrillization, ThT fluorescence; series mostly up to 57.4 µM.
Sequence of UniProt P10636 (P10636 whole entry, looked up, the tested form may be a part): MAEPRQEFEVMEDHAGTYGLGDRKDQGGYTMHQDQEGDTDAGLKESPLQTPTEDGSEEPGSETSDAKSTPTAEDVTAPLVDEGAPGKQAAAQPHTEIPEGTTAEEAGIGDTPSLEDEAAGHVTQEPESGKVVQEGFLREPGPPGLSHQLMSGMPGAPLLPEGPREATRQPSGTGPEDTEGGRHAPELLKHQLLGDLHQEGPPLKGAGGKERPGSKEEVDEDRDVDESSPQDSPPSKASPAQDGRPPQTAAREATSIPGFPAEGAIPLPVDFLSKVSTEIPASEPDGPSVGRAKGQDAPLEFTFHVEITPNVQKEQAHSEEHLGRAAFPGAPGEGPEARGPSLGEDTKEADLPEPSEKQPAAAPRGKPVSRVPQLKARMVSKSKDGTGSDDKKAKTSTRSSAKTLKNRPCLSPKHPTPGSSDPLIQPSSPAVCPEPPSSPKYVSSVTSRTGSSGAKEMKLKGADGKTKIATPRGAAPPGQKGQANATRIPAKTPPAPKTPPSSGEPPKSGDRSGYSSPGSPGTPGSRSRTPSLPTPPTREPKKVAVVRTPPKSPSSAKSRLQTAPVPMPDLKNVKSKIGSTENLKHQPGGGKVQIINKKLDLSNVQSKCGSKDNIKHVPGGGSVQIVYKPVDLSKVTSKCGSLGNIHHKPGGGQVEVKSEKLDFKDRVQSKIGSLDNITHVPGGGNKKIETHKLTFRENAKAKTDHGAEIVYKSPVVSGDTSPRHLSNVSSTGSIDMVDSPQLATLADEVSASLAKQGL
How it was run: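 Heparin-induced (20 uM) aggregation of recombinant human K18 P301L tau, 15 uM unlabeled with 0.24 uM labeled, pH 7 acetate buffer, 6 hr at 37 C with compound. Fibrils quantified by 30 uM ThT fluorescence after 1 hr ambient incubation.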
For `S=C(Nc1ccc2nsnc2c1)N1CCCC1`, the Potency was active: 25.1 µM.
In the case of `CCS(=O)(=O)N1CCC(C(=O)N2CCc3ccccc3C2)CC1`, the Potency is reported as inconclusive: 31.6 µM [inhibitor, partial curve].
In the case of `C=CCN=c1scc(C)n1/N=C/c1ccc(O)c(O)c1`, the Potency is reported as inconclusive: 8.91 µM [inhibitor, partial curve].
`CCN(C(=O)Cn1cnc2cc([N+](=O)[O-])ccc2c1=O)C1CCS(=O)(=O)C1` (stereo not drawn) was tested, and the Potency was “inactive”.
In the case of `CCc1ccc(C(=O)NNc2cc(Cl)cc(Cl)c2)cc1`, the Potency is reported as inconclusive: 35.5 µM [inhibitor, partial curve].
For `CCn1cc(C(=O)Nc2ccc(F)c(F)c2)cn1`, the Potency was “inactive”.
With `COC(=O)C1=NN(C(=O)c2ccc(C)cc2)C(O)(c2ccc(Cl)cc2)C1` (stereo not drawn) the Potency was inconclusive: 28.2 µM [inhibitor, single point].
`CCOC(=O)c1c(C#N)c(SCC(=O)Nc2ccc(OC)cc2)nc2c1CN(CC)CC2` was tested, and the Potency was inconclusive: 12.6 µM [inhibitor, partial curve].
`CCN1C(=C(C#N)C#N)C=Cc2cc(C)ccc21` was tested, and the Potency was “inactive”.
`CC(=O)c1ccc(N2CCN(S(=O)(=O)c3cc4[nH]c(=O)c(=O)[nH]c4cc3C)CC2)cc1` was tested, and the Potency was inconclusive: 15.8 µM [inhibitor, partial curve].
`Cc1cc(C)c2ccc(C)[n+]([O-])c2c1O` was tested, and the Potency was inconclusive: 22.4 µM [inhibitor, single point].
In the case of `Cc1c(NC(=O)C2CCCO2)cccc1[N+](=O)[O-]` (stereo not drawn), the Potency is reported as “inactive”.
`O=C(O)/C=C/C(=O)Nc1ccc2c(c1)NC(=O)CO2` was tested, and the Potency was inconclusive: 12.6 µM [inhibitor, partial curve].
With `O=C(N/N=C/c1ccncc1)C1CC1(c1ccccc1)c1ccccc1` (stereo not drawn) the Potency was inconclusive: 14.1 µM [inhibitor, partial curve, poor fit].
In the case of `CC(=O)Nc1ccc(/C=C/c2noc(-c3ccccc3O)n2)cc1`, the Potency is reported as inconclusive: 1 µM [inhibitor, full curve].
`COc1cccc(/C=C/C(=O)c2c(O)cc(C)oc2=O)c1O` was tested, and the Potency was inconclusive: 15.8 µM [inhibitor, partial curve].
For `COc1cccc(-n2c(=O)c3cc(OC)c(OC)cc3n(CC(=O)Nc3ccc(F)cc3)c2=O)c1`, the Potency was “inactive”.
In the case of `CC(C)n1c(-c2ccc(C(C)(C)C)cc2)n[nH]c1=S`, the Potency is reported as “inactive”.
With `O=C(Nc1ccc(N2CCN(C(=O)c3ccccc3)CC2)c(Cl)c1)c1ncn[nH]1` the Potency was inconclusive: 11.2 µM [inhibitor, partial curve].
With `COc1ccc(-c2noc(CCC(=O)N(C)c3cc(Cl)ccc3OC)n2)cc1` the Potency was inconclusive: 39.8 µM [inhibitor, single point].
For `CN1C(=O)C(O)(CC(=O)/C=C\c2ccc3c(c2)OCO3)c2ccccc21` (stereo not drawn), the Potency was inconclusive: 11.2 µM [inhibitor, partial curve].
With `O=C(Nc1ccc2[nH]c(=O)[nH]c2c1)Nc1ccc(F)cc1F` the Potency was inconclusive: 14.1 µM [inhibitor, partial curve, poor fit].
With `CCOC(=O)N1CCN(C(=S)Nc2ccc3nc(N4CCN(CC)CC4)cc(C)c3c2)CC1` the Potency was inconclusive: 15.8 µM [inhibitor, partial curve].
For `COc1ccc(-n2c(SCC(=O)NCc3ccc(Cl)cc3)nc3ccsc3c2=O)cc1`, the Potency was “inactive”.
In the case of `O=C(NC(CSCc1ccccc1)C(=O)N/N=C/c1ccc(O)cc1O)c1ccc([N+](=O)[O-])cc1` (stereo not drawn), the Potency is reported as inconclusive: 25.1 µM [inhibitor, partial curve].
`COc1cccc(Cn2nc(SC)c(S(=O)(=O)c3ccccc3)c2N(C(C)=O)C(C)=O)c1` was tested, and the Potency was inconclusive: 20 µM [inhibitor, partial curve].
In the case of `COCCNS(=O)(=O)c1ccc(C)c(C)c1C`, the Potency is reported as “inactive”.
In the case of `CC(C)(C)c1ccc(S(=O)(=O)/C=C/C#N)cc1`, the Potency is reported as inconclusive: 3.55 µM [inhibitor, full curve].
For `O=C(CCN1c2ccccc2Sc2ccccc21)OCC(=O)N1CCN(C(=O)c2ccco2)CC1`, the Potency was inconclusive: 17.8 µM [inhibitor, partial curve].
For `CN(C)Cc1ccccc1-c1cncnc1Nc1ccc(F)cc1`, the Potency was “inactive”.
In the case of `CCOc1ccc(C(=O)N(Cc2ccc(C(C)C)cc2)Cc2ccco2)cc1`, the Potency is reported as inconclusive: 20 µM [inhibitor, single point].
For `COc1ccc(CS(=O)/C(Cl)=C(/Cl)C(=O)Nc2ccc(OC)nc2)cc1` (stereo not drawn), the Potency was inconclusive: 3.55 µM [inhibitor, full curve].
With `O=C(Nc1nc(-c2ccccn2)cs1)c1ccco1` the Potency was inconclusive: 20 µM [inhibitor, partial curve].
In the case of `Cn1c(SCC(=O)N/N=C/c2ccccn2)nnc1-c1ccccc1`, the Potency is reported as “inactive”.
In the case of `CCOc1ccc(Nc2ncnc3c2c(-c2ccccc2)cn3-c2cccc(C)c2)cc1`, the Potency is reported as inconclusive: 0.355 µM [inhibitor, full curve, poor fit].
In the case of `CCCn1c2ccc(F)cc2c2nnc(SCCN3CCCCC3)nc21`, the Potency is reported as inconclusive: 31.6 µM [inhibitor, single point].
In the case of `O=C(/C=C/Nc1cccc(C(F)(F)F)c1)c1ccc(Oc2ncccn2)cc1`, the Potency is reported as inconclusive: 2.82 µM [inhibitor, partial curve].
With `COc1cc(NC(=O)c2cccc(Cl)c2Cl)ccc1NC(=O)c1cc2ccccc2o1` the Potency was inconclusive: 0.447 µM [inhibitor, full curve, poor fit].
In the case of `O=C1CCCC2=C1C(c1cn(-c3ccccc3)nc1-c1cccs1)c1c([nH]c(=O)[nH]c1=O)N2` (stereo not drawn), the Potency is reported as inconclusive: 20 µM [inhibitor, single point].
`O=C(NNC(=O)c1cc2cc(Br)ccc2oc1=O)c1ccc(O)cc1` was tested, and the Potency was inconclusive: 28.2 µM [inhibitor, partial curve].
`COc1ccc(-c2nc3ccccn3c2NCc2ccc3c(c2)OCO3)cc1` was tested, and the Potency was inconclusive: 15.8 µM [inhibitor, partial curve].
For `O=C(NC(=S)Nc1ccc(NC(=O)c2cccs2)cc1)c1cc2ccccc2o1`, the Potency was inconclusive: 1.58 µM [inhibitor, full curve].
`c1csc(-c2csc(-c3cccs3)n2)c1` was tested, and the Potency was inconclusive: 14.1 µM [inhibitor, partial curve].
Further: nearly all actives have a fitted effect of over 55% in size.
Potency means the concentration at half of the fitted maximal effect; tags describe the fitted curve by direction and shape.
